Reference: the supplement of paper PMC3334620
Whole data set: some 33,000 sequences, median “E-score (-0.5 to 0.5)” near -0.036, cut for the highest 2% near 0.37. Some of the results follow.

These sequences were tested against T1, Yer064c (UniProt P40041) (assay: PBM E-score (8-mer binding enrichment) (E-score (-0.5 to 0.5)); higher = stronger / more preferred TF binding; most listed sequences are background and not binding sites). Conditions: protein concentration: 200 nM; construct: GST-full length.
T1 sequence: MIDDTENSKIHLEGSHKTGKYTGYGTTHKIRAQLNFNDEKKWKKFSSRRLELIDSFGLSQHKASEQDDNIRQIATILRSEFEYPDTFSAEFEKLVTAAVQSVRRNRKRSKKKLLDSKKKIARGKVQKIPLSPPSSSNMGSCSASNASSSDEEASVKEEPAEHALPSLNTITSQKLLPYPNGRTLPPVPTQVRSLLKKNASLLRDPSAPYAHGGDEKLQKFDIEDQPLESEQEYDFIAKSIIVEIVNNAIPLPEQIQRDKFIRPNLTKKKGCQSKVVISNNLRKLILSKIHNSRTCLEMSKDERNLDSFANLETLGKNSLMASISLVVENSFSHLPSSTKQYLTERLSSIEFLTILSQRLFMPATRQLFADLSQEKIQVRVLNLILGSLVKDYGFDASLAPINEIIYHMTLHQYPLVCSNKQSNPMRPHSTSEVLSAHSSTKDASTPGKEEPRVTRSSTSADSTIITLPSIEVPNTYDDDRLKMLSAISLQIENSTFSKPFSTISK
Experimental: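 Universal 'all 10-mer' protein binding microarrays (Agilent AMADID 015681) probed with GST-tagged S. cerevisiae TFs (full-length or DBD) made by in vitro transcription/translation (PURExpress), about 100-200 nM. Bound TF was detected with fluorescent anti-GST. Each ungapped 8-mer (which stands for itself and its reverse complement) is scored by the PBM enrichment score (E-score), a modified Wilcoxon-Mann-Whitney statistic from -0.5 to +0.5, computed with the Universal PBM Analysis Suite. Scale: above 0.35 generally sequence-specific binding.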

| Sequence | PBM E-score |
| --- | --- |
| CCTGAGTC | 0.461 |
| ATTTGGTG | -0.0429 |
| ATTCCGTA | 0.0612 |
| ATCACCGG | 0.24 |
| ACCATGTA | 0.0651 |
| GCTTAAAC | 0.06 |
| CCGCATAG | -0.129 |
| CTCGCCAA | -0.0752 |
| CATTACTC | 0.179 |
| AGGAGCAG | -0.286 |
| AAACCATT | 0.157 |
| GTAATGAA | 0.0372 |
| ACGCACCC | -0.201 |
| CTACGTTC | -0.111 |
| CTCTGTAC | -0.146 |
| ATCAGAAT | 0.165 |
| GAACGCTC | -0.298 |
| AGCCCGCC | -0.231 |
| AGCAATCA | 0.318 |
| ATATGACC | 0.0605 |
| CTTCATGA | 0.23 |
| CAGCATGG | 0.00278 |
| GAAGCCCC | -0.368 |
| GAAATACC | -0.158 |
| AGGAGAGG | -0.324 |

| Sequence | PBM E-score |
| --- | --- |
| AGGCAGGG | -0.162 |
| ATAGGAAT | 0.141 |
| CAGCGAGC | -0.15 |
| ACTAACGA | 0.315 |
| CGTCGTGA | 0.0738 |
| GCCCCGCC | -0.164 |
| CCTTCATA | -0.0285 |
| AGGGGACT | 0.234 |
| ACCTTTGG | -0.175 |
| GAGTTAGC | 0.0703 |
| GTGCGCAA | -0.00229 |
| CGAACGCG | -0.0743 |
| TCCCTCGA | -0.0167 |
| CGTTTCGC | -0.125 |
| GCAACTAA | 0.0789 |
| GTCGTCTA | 0.0967 |
| AGTAAACA | 0.0961 |
| CAAGAAGC | -0.0192 |
| AGGCCTCA | -0.142 |
| CACCCGGA | -0.0433 |
| CCCCGGAC | -0.237 |
| CAACGGAG | -0.224 |
| CCACTCAG | 0.0632 |
| CTTACAGC | -0.0346 |
| ATCGCCCC | -0.0169 |

| Sequence | PBM E-score |
| --- | --- |
| CTTACTAC | -0.0948 |
| GGAGGGAC | -0.271 |
| CAGGACTG | 0.221 |
| ACTAGTGC | 0.0675 |
| ACACTAAC | -0.00977 |
| CACACCCA | 0.0764 |
| ATTTTTGG | -0.0135 |
| CGATAGAC | 0.00233 |
| GTCTCCAA | 0.022 |
| CCTCCTAC | -0.238 |
| GTACTAAA | 0.121 |
| CCGACGTA | -0.198 |
| AGTGCACA | -0.0839 |
| AATATGGC | -0.2 |
| AGCCTGTC | 0.0571 |
| CAAAATGC | -0.0258 |
| GCTATGTA | 0.0249 |
| CCATGAGA | 0.0159 |
| AGGGTTAT | -0.249 |
| ATCAGTGG | 0.0632 |
| GTGGGATA | -0.175 |
| ACATTGGG | -0.276 |
| ACCAGGCA | -0.0182 |
| TACTTAGA | 0.167 |
| ATTCTACA | -0.0249 |

| Sequence | PBM E-score |
| --- | --- |
| AGAGGGCC | -0.18 |
| AAATTGGG | -0.172 |
| CTAACGCC | -0.163 |
| AGCTCTCC | -0.204 |
| ACGAATCC | 0.171 |
| CTTTTATA | 0.0172 |
| TACAACCA | 0.119 |
| CCTTACAG | -0.2 |
| CCGCAGTC | 0.285 |
| TTGATCAA | 0.139 |
| ACGGACGA | 0.0598 |
| GTTGCGGA | -0.00464 |
| CCAAGCCC | -0.159 |
| CAGTAACA | 0.0175 |
| AGCATCTG | -0.161 |
| ATGTTTTA | 0.108 |
| TAACCTGA | 0.163 |
| AGAGAGCC | -0.112 |
| ACGCGCTG | -0.172 |
| CCACGGTA | -0.0324 |
| GTCACCAA | 0.185 |
| AATGGGGA | -0.288 |
| TGGGGGAA | -0.297 |
| GACACAAC | -0.0181 |
| AAACAGTA | 0.0327 |

| Sequence | PBM E-score |
| --- | --- |
| GCATATGA | 0.14 |
| CGAGCCTA | -0.0877 |
| AATGGGCG | -0.0714 |
| AAGAGTTA | 0.0692 |
| CCTTTAGC | -0.151 |
| CATACCGC | 0.0449 |
| GCCTCCAC | -0.152 |
| AGCTCGTG | 0.00468 |
| AAACGTTT | -0.0703 |
| CTGCACGA | 0.0475 |
| ACCGATCC | -0.111 |
| GAGGAGAC | 0.104 |
| CTGTGCCC | -0.173 |
| AGTGTTCA | 0.0418 |
| ACCCGTCC | -0.0651 |
| GAAACCAA | -0.059 |
| ACGTGCTG | -0.265 |
| AAGCGCGC | -0.0597 |
| TCCGGGCA | -0.08 |
| CCGAGTTC | -0.0795 |
| TCCTAGAA | -0.119 |
| ATAGGGCC | -0.379 |
| CGATACGC | -0.217 |
| CCTCGATC | -0.197 |
| CACCAATC | -0.0186 |

| Sequence | PBM E-score |
| --- | --- |
| CTGGCAGA | -0.00993 |
| ACGAGTCT | 0.312 |
| CTACGTCA | -0.0828 |
| CACGTTAG | 0.151 |
| ACAGCGGT | -0.0996 |
| GGCGTTAA | -0.128 |
| GTCAACTA | 0.262 |
| ATCACGGA | 0.104 |
| ACAGAGCC | -0.108 |
| CCGTGTCG | -0.165 |
| ACTCGATA | 0.254 |
| CATCGAAA | -0.0293 |
| AATGTCGG | -0.0528 |
| CCCCTATA | -0.0947 |
| AATACGCG | -0.195 |
| TATCATCA | 0.0107 |
| GAATCAGC | 0.417 |
| AGTTAACT | 0.0919 |
| CATGTCAA | -0.0691 |
| CCAAAGCG | -0.249 |
| ATATTGGG | -0.284 |
| AATGACCC | -0.0705 |
| CCCTATTA | -0.165 |
| ACAGGGTG | -0.0572 |
| ATCTCAAC | 0.18 |

| Sequence | PBM E-score |
| --- | --- |
| AGAGCGCG | -0.0984 |
| CAGGCCAA | -0.193 |
| CAATGAAC | -0.0322 |
| ACACCACG | -0.122 |
| ACCATGAG | 0.0211 |
| CAATTTTC | -0.244 |
| AGATCCTC | -0.326 |
| CTATCGTA | 0.025 |
| AGGGGGCA | -0.244 |
| ATCTGTTA | 0.0654 |
| AAGAAACT | -0.0492 |
| CGATCCCA | -0.137 |
| AACATAAT | 0.0551 |
| CAAAATGA | 0.118 |
| GTGGTATA | -0.0168 |
| ATTATGGC | 0.0943 |
| ACGAGCAA | -0.0062 |
| CCCCCTGA | -0.184 |
| CCTTATCC | -0.181 |
| ACTGCAAT | 0.087 |
| GCCCAGGC | -0.291 |
| CGCCGAAG | 0.051 |
